The values that follow come from patent publication US20040209363A1 (published 2004).

In the test the target is human 4-1BB (CD137) on human T cells (human, UniProt Q07011 24-255). Kind of test: cell-based or functional assay.
UniProt Q07011, sequence (Q07011 24-255): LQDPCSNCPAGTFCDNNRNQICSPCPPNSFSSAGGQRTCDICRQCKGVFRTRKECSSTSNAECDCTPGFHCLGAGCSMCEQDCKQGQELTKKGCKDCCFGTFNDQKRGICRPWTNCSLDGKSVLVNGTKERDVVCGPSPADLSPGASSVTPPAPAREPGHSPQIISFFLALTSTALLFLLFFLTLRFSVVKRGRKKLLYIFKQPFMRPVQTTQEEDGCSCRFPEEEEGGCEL

B1: human 4-1BB ligand (full length), expressed on transfected P815 cells (ligand)
chain: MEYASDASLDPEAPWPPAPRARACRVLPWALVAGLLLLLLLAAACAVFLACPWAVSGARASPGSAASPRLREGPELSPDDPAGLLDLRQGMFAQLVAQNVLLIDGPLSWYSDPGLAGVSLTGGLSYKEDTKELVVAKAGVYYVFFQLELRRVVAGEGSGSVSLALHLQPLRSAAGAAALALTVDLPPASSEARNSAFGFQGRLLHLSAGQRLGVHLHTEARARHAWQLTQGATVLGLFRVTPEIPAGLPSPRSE
With B1, the “expansion of CD4 and CD8 T cell populations in total T cell cultures stimulated with P815-4-1BBL plus OKT3 (viable cell count, 5 days)” value was around 2 fold; the “expansion of sorted CD28+ and CD28- T cells (viable cell count after 5 or 6 days)” value is 2 fold.
